Measured values: patent US20190125701A1 (priority 2016, published 2019)

Test system: mCMV
Details: mouse, in vivo

**Q.** How did the increase of survival turn out when `CCCC(C(N)=O)C(C)CC` (stereo not shown) [SPD, 3-methyl-2-propylpentanamide] was run?
**A.** The increase of survival was “three-fold”.
